Laboratory results published in PubChem BioAssay AID1963576 (National Center for Advancing Translational Sciences (NCATS), 2024).
Hit rate of the full screen: of about 46,000 compounds, about 60 (0.1%) were called active. Not shown: some 3% with an inconclusive outcome. Calls come from the whole dose curve; as a rule, active = well fitted inhibition curve with a large enough effect; inconclusive = small, poorly fitted or top-dose-only effect; inactive = no such curve, though single readings can be large or run the other way. Some of the results follow.

Assay: Primary qHTS assay for Inhibitors of ovarian cancer metastasis using an organotypic tumor microenvironment (TME) model.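 For activity change, negative = inhibition: plate controls were DMSO wells for no effect and tomatine positive control wells for full effect.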 Note: nearly all actives have a fitted effect of over 65% in size.
Details: SKOV3ip1-GFP adhesion/invasion on 3D omental model, fluorescence; series mostly up to 45.8 µM; activity change, negative = inhibition: at the top concentration
How it was run: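 Primary human omental fibroblast/mesothelial 3D culture pre-formed 48 h. SKOV3ip1-GFP cells added with compounds (0.36-46 umol/L), incubated 2 h RT/16 h 37 C, fixed; GFP cells quantified at 488/509 nm.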

**Q.** With `COc1cc(OC)c(NC(=O)Cn2c(=O)oc3cc(S(=O)(=O)N4CCCC4)ccc32)cc1Cl` as the compound, how does the “activity change, negative = inhibition” value read?
**A.** The value was inactive: 8.66%.

**Q.** For `Cc1ccc(CN2C(=O)c3oc4ccc(C)cc4c(=O)c3C2c2ccc(O)cc2)cc1` (centres undefined), which “activity change, negative = inhibition” value is on record?
**A.** Its value is inactive: 4.62%.

**Q.** Which “outcome” value does the source give for `COc1ccc(NS(=O)(=O)c2ccc3[nH]c4c(c3c2)CCCC4)cc1Cl` here?
**A.** Its value is “inactive”.

**Q.** Which “activity change, negative = inhibition” value does the source give for `CCCCCn1c(-c2ccc(OC)c(OC)c2)nc2ccccc21` here?
**A.** The value was inactive: -4.85%.

**Q.** For `Cc1ccc(Cl)cc1N1CCN(S(=O)(=O)c2ccc3c(c2)CCCN3C(=O)C2CCC2)CC1`, which “activity change, negative = inhibition” value is on record?
**A.** Its value is inactive: -14.3%.

**Q.** Which “activity change, negative = inhibition” value does the source give for `COc1cc2c(=O)n(CCC(=O)NCC3CCCO3)c(=O)n(CC(=O)Nc3ccc(C)c(C)c3)c2cc1OC` (centres undefined) here?
**A.** The value was inactive: 19.5%.

**Q.** For `Cc1ccc(OCC(=O)N(Cc2ccco2)Cc2ccc(C)o2)cc1`, which “activity change, negative = inhibition” value is on record?
**A.** Its value is inactive: -8.92%.

**Q.** With `COc1ccc(-c2cc(C(F)(F)F)n3nc(C(=O)Nc4ccccc4SC)cc3n2)cc1OC` as the compound, how does the “activity change, negative = inhibition” value read?
**A.** The value was inactive: 50.7%.

**Q.** Which “activity change, negative = inhibition” value does the source give for `CCC(C)NC(=O)c1nn(-c2ccc(C)cc2)c(=O)n(C)c1=O` (centres undefined) here?
**A.** Its value is inactive: -1.7%.

**Q.** With `COCCCNC(=O)C1CCN(c2nn3cc(-c4ccc(F)cc4)nc3s2)CC1` as the compound, how does the “outcome” value read?
**A.** The value was “inactive”.

**Q.** With `CCOc1ccccc1NC(=O)c1cnn2c(C(F)F)cc(-c3ccccc3)nc12` as the compound, how does the “activity change, negative = inhibition” value read?
**A.** The value was inactive: 3.89%.

**Q.** Which “activity change, negative = inhibition” value does the source give for `CC(C)c1cccc(OCCn2c(-c3ccc(Cl)cc3)nc3ccccc3c2=O)c1` here?
**A.** Its value is inactive: -21.1%.

**Q.** Which “activity change, negative = inhibition” value does the source give for `COc1cccc(CCNC(=O)c2c(O)nc3ccccn3c2=O)c1` here?
**A.** Its value is inactive: 5.4%.

**Q.** Which “activity change, negative = inhibition” value does the source give for `CC(=O)O[C@]1(C(C)=O)CC[C@@H]2[C@@H]3C[C@H](C)C4=CC(=O)CC[C@]4(C)[C@H]3CC[C@@]21C` here?
**A.** Its value is inactive: 20%.

**Q.** With `Cc1ccccc1C(=O)OCc1cc(=O)n2nc(-c3cccs3)sc2n1` as the compound, how does the “activity change, negative = inhibition” value read?
**A.** The value was inactive: 4.16%.

**Q.** With `CN(C)CCN(Cc1ccco1)C(=O)c1oc2ccccc2c1NC(=O)c1ccccc1` as the compound, how does the “activity change, negative = inhibition” value read?
**A.** The value was inactive: -14.9%.

**Q.** With `Cc1ccc(C)c(NC(=O)c2cc(S(=O)(=O)N3CCCCCC3)ccc2F)c1` as the compound, how does the “activity change, negative = inhibition” value read?
**A.** The value was inactive: 1.06%.

**Q.** For `CC1=C(C(=O)Nc2ccccc2)C(c2cccs2)n2nc(SCc3ccccc3F)nc2N1` (centres undefined), which “outcome” value is on record?
**A.** The value was “inactive”.

**Q.** Which “outcome” value does the source give for `CN1C(=O)Cc2cc(S(=O)(=O)CCC(=O)Nc3ccc(F)c(Cl)c3)ccc21` here?
**A.** Its value is “inactive”.

**Q.** For `O=C(Nc1cc(F)ccc1F)N1CCC(CN2CCCC2)CC1`, which “activity change, negative = inhibition” value is on record?
**A.** Its value is inactive: 25.3%.

**Q.** Which “activity change, negative = inhibition” value does the source give for `Cn1cc(S(=O)(=O)c2cccc(Cl)c2)c(=O)c2cc(F)c(N3CCN(c4ccccc4)CC3)cc21` here?
**A.** Its value is inactive: -5.37%.

**Q.** Which “activity change, negative = inhibition” value does the source give for `Cc1ccc2c(=O)c(C(=O)c3cccc(Cl)c3)cn(CC(=O)Nc3ccc4c(c3)OCCO4)c2n1` here?
**A.** Its value is inactive: 3.5%.

**Q.** With `O=C(CSc1nnc(NC(=O)Nc2ccccc2)s1)Nc1cccc(F)c1` as the compound, how does the “outcome” value read?
**A.** Its value is “inactive”.

**Q.** For `CCOc1ccc(NC(=O)CN2CCCN(Cc3cc(C)ccc3C)S2(=O)=O)cc1`, which “activity change, negative = inhibition” value is on record?
**A.** Its value is inactive: -7.21%.

**Q.** Which “activity change, negative = inhibition” value does the source give for `CCOC(=O)c1ccccc1NC(=O)N1CCC(CN2CCCCC2)CC1` here?
**A.** Its value is inactive: -2.94%.

**Q.** Which “activity change, negative = inhibition” value does the source give for `CCCC(=O)Nc1ccc(-c2nc3ncccc3o2)cc1C` here?
**A.** The value was inactive: 11.7%.

**Q.** With `CCOC(=O)c1cccc(NC(=O)CCn2nc(C)c(S(=O)(=O)N3CCCCC3)c2C)c1` as the compound, how does the “activity change, negative = inhibition” value read?
**A.** Its value is inactive: -0.939%.

**Q.** For `Cc1ccc(NC(=O)C(C)Sc2nc(=O)cc(N)n2-c2ccccc2)cc1` (centres undefined), which “activity change, negative = inhibition” value is on record?
**A.** The value was inactive: -26.3%.

**Q.** With `CCc1ccccc1Nc1cc(C(=O)NC(C)c2ccccc2)c2ccccc2n1` (centres undefined) as the compound, how does the “activity change, negative = inhibition” value read?
**A.** The value was inactive: 16.5%.

**Q.** For `CCCc1nn2c(=O)cc(COC(=O)c3ccccc3NC(=O)c3ccc(Cl)cc3)nc2s1`, which “activity change, negative = inhibition” value is on record?
**A.** The value was inactive: -1.48%.

**Q.** With `COc1ccc2c(CNCCc3ccco3)c(C(=O)O)n(Cc3ccccc3)c2c1` as the compound, how does the “activity change, negative = inhibition” value read?
**A.** Its value is inactive: 1.84%.

**Q.** Which “activity change, negative = inhibition” value does the source give for `Cc1cc(S(=O)(=O)Nc2ccc(-c3ccc(N4CCCCCC4)nn3)cc2)c(C)cc1Cl` here?
**A.** Its value is inactive: -18.4%.

**Q.** Which “outcome” value does the source give for `Cc1nc(-c2cccnc2)sc1CCNS(=O)(=O)c1ccc(F)cc1` here?
**A.** The value was “inactive”.

**Q.** For `COCCNC(=O)c1cccc(-n2c(C)nc3cccnc32)c1`, which “outcome” value is on record?
**A.** The value was “inactive”.

**Q.** Which “outcome” value does the source give for `COc1ccc(NC(=O)CSc2nc3ccccc3n2Cc2cccc(OC)c2)cc1` here?
**A.** The value was “inactive”.

**Q.** Which “activity change, negative = inhibition” value does the source give for `CCOc1ccc(NC(=O)C2CCN(c3nnc(-n4c(C)ccc4C)s3)CC2)cc1` here?
**A.** Its value is inactive: 4.11%.

**Q.** For `Cc1ccc(NC(=O)c2cc(S(=O)(=O)N3CCc4ccccc43)ccc2F)cc1Cl`, which “activity change, negative = inhibition” value is on record?
**A.** Its value is inactive: -8.06%.

**Q.** With `COc1cc(OC)cc(-n2c(=O)c3sccc3n(Cc3c(C)cc(C)cc3C)c2=O)c1` as the compound, how does the “activity change, negative = inhibition” value read?
**A.** The value was inactive: 1.36%.

**Q.** With `CCc1sc(Nc2cccc(C)c2C)nc1-c1cc2cccc(OC)c2oc1=O` as the compound, how does the “activity change, negative = inhibition” value read?
**A.** Its value is inactive: 1.27%.

**Q.** Which “activity change, negative = inhibition” value does the source give for `COc1ccc(-c2cc(C(F)(F)F)nc(SCC(=O)NCCc3ccccc3)n2)cc1OC` here?
**A.** The value was inactive: -4.19%.

**Q.** With `O=C(NCc1nc2cccnc2n1Cc1ccc(F)cc1)c1ccccc1C(F)(F)F` as the compound, how does the “activity change, negative = inhibition” value read?
**A.** The value was inactive: -0.84%.

**Q.** With `Cc1ccccc1OCC(=O)Nc1cc(-c2cccc(Br)c2)nn1-c1ccccc1` as the compound, how does the “outcome” value read?
**A.** The value was “inactive”.

**Q.** For `CCOc1ccc(NC(=O)Cn2nc(-c3ccncc3)ccc2=O)cc1`, which “activity change, negative = inhibition” value is on record?
**A.** The value was inactive: 12.7%.

**Q.** With `CCCCNC(=O)c1c(C)oc2ncn(CC(C)C)c(=O)c12` as the compound, how does the “activity change, negative = inhibition” value read?
**A.** The value was inactive: 0.842%.

**Q.** With `O=C(c1cccc(Cl)c1)N1CCN(CCc2ccccn2)CC1` as the compound, how does the “activity change, negative = inhibition” value read?
**A.** The value was inactive: -13.2%.

**Q.** With `COc1cccc(CNS(=O)(=O)c2cc3c(cc2C)n(C)c(=O)c(=O)n3C)c1` as the compound, how does the “activity change, negative = inhibition” value read?
**A.** The value was inactive: 5.82%.

**Q.** For `Cc1noc(-c2ccc(NCc3ccccc3)c([N+](=O)[O-])c2)n1`, which “activity change, negative = inhibition” value is on record?
**A.** Its value is inactive: 6.56%.

**Q.** With `COc1ccc2nc(NC(=O)c3cc(=O)c4ccccc4o3)sc2c1` as the compound, how does the “activity change, negative = inhibition” value read?
**A.** The value was inactive: 4.89%.

**Q.** Which “outcome” value does the source give for `COc1ccc(NC(=O)Cn2c(=O)n(CCc3ccccc3)c(=O)c3ccccc32)cc1` here?
**A.** The value was “inactive”.
